The supplement of paper PMC12217912
This is one part of the list. Sequences were assembled here from the parent chain. Inactive controls read about 0.05.

B1: TEV protease; numbered along this chain (parent)
chain: MGESLFKGPRDYNPISSSICHLTNESDGHTTSLYGIGFGPFIITNKHLFRRNNGTLVVQSLHGVFKVKDTTTLQQHLVDGRDMIIIRMPKDFPPFPQKLKFREPQREERICLVTTNFQTKSMSSMVSDTSCTFPSGDGIFWKHWIQTKDGQCGSPLVSTRDGFIVGIHSASNFTNTNNYFTSVPKNFMELLTNQEAQQWVSGWRLNADSVLWGGHKVFMVKPEEPFQPVKEATQL

Variants of: B1
Assay: raw area under fraction-flipped curve 0-4 h after induction (AUC4h, not background-subtracted), DNA-recorder readout of cleavage of the substrate (dimensionless); higher = more cleavage of the substrate by the protease variant
Details: temperature: 34 °C; time window: 0-4 h after rhamnose induction
Experimental: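 In vivo DNA recorder in E. coli TOP10(DE3) ΔrhaA at 34 °C. Each TEVp single-site mutant (parent TEVp 0) is paired with a single-site variant of the 7-mer TEVs (canonical ENLYFQ|S). The substrate sits between flexible linkers in a Bxb1-sfGFP-TEVs-SsrA fusion, so cleavage stabilises Bxb1 and speeds flipping of a recombination array, read by NGS. The value is the raw area under the fraction-flipped curve over 0-4 h after rhamnose induction (AUC4h), with ≥20 reads per time point. It is not background-subtracted; inactive controls average about 0.047.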
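Note: Bxb1 expression induced with 0.2% (w/v) L-rhamnose at OD600 near 0.5, cultures sampled hourly, flipped fraction per protease–substrate barcode pair counted by paired-end Illumina sequencing.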

Variant	area with substrate ENLYFCS	area with substrate ENLYFDS	area with substrate ENLYFES	area with substrate ENLYFGS	area with substrate ENLYFHS	area with substrate ENLYFIS	area with substrate ENLYFKS	area with substrate ENLYFLS	area with substrate ENLYFMS	area with substrate ENLYFNS	area with substrate ENLYFPS	area with substrate ENLYFSS	area with substrate ENLYFTS	area with substrate ENLYFVS	area with substrate ENLYFFS	area with substrate ENLYFRS	area with substrate ENLYFWS	area with substrate ENLYFYS
P104V	0.0523	0.0545	0.0542	0.106	0.0551	0.0563	0.0554	0.0512	0.0555	0.0503	0.0702	0.0565	0.0616	0.0675	–	–	–	–
R106G	0.0605	–	–	–	–	0.0514	–	0.0567	0.0536	0.0595	0.0664	–	–	–	0.0715	0.0715	0.0405	0.0525
I110V	0.0582	0.0601	0.0562	–	0.0687	0.0597	0.0594	0.0611	0.0827	0.0733	0.059	0.0525	0.0576	–	0.0595	0.0812	0.0542	–
T114H	0.0615	0.0696	0.06	–	–	0.0523	0.0691	–	–	–	0.0562	–	–	–	0.0716	0.0591	–	0.0797
T115G	0.0511	–	0.0438	0.0232	0.0595	0.0623	–	–	–	–	–	–	–	0.0536	0.0681	–	–	–
T115M	0.0452	0.0688	0.0692	0.0566	0.0898	0.0576	–	–	–	0.0604	0.0611	–	–	0.053	0.0593	0.0542	0.046	0.053
F117V	0.0468	0.0517	0.0693	0.0462	0.0657	0.0541	0.0713	–	0.0688	0.0611	0.0551	0.0627	0.0699	–	0.0666	0.0676	–	–
K120C	0.0664	0.0641	0.0679	–	0.0752	0.0579	–	0.0579	0.0722	–	0.0688	–	0.0506	0.0647	0.0693	–	0.0328	–
K120D	0.059	–	0.0678	–	0.053	–	0.0716	0.079	0.0599	–	0.0644	–	–	0.0706	0.0777	–	–	–
K120V	0.0507	0.0588	0.0598	–	0.0649	0.032	–	–	0.0654	0.0649	0.0554	0.0477	0.0722	–	–	0.064	0.0606	0.0526
P134Y	0.0707	–	0.0492	0.0556	–	0.0734	0.0611	0.0542	0.0613	0.0574	0.0677	0.0557	0.0583	0.0536	–	0.0442	0.0603	0.0585
G136A	0.0601	–	0.0566	–	0.0543	0.0542	–	–	0.0662	0.0472	0.0595	–	0.0542	–	0.0794	–	–	–
G136E	0.0571	0.0517	0.0603	–	0.0292	0.0633	0.072	–	0.0639	–	0.0567	0.0514	–	0.0517	0.0586	0.0461	0.0714	0.048
D137P	0.0757	0.0559	0.0479	–	–	–	–	–	–	–	0.0544	–	0.0635	–	0.0798	–	–	–
G138H	0.0545	0.0439	–	–	–	0.0619	0.0412	–	–	–	0.0485	–	–	–	–	–	–	0.0616
W141H	0.0415	0.0597	0.0473	0.0158	–	0.046	0.0537	–	0.0695	–	0.0727	0.0591	–	–	0.0718	0.0509	0.0295	–

Variant	area with substrate ENLYFCS	area with substrate ENLYFDS	area with substrate ENLYFES	area with substrate ENLYFGS	area with substrate ENLYFHS	area with substrate ENLYFIS	area with substrate ENLYFKS	area with substrate ENLYFLS	area with substrate ENLYFMS	area with substrate ENLYFNS	area with substrate ENLYFPS	area with substrate ENLYFSS	area with substrate ENLYFTS	area with substrate ENLYFVS	area with substrate ENLYFFS	area with substrate ENLYFRS	area with substrate ENLYFWS	area with substrate ENLYFYS
W141S	0.052	–	0.0506	0.0591	0.0545	0.0522	–	–	0.0644	0.0422	0.0503	–	0.0512	–	0.0534	0.0511	0.0561	–
W144I	0.0562	–	–	0.0669	–	0.063	0.0573	–	0.0698	0.0602	0.0672	–	0.0573	–	0.0398	–	0.0525	0.0551
G150N	0.0567	–	0.0594	0.0738	–	0.053	0.0592	–	0.0597	0.0325	0.0568	–	0.0637	0.0519	0.0608	0.0512	0.0547	0.0519
C152H	0.0477	0.0719	0.0537	–	–	0.0551	0.0561	–	–	–	0.0524	–	0.0501	–	0.0742	–	–	0.0496
C152Y	0.0505	–	0.0421	–	–	0.0593	0.034	–	0.0534	–	0.0531	–	0.0507	–	–	0.0701	0.0541	0.0573
R160F	0.0672	0.0661	0.0703	0.062	0.0527	0.0627	0.0813	0.0518	0.0784	–	0.062	0.0628	0.0712	0.0394	0.0677	0.0582	0.0706	0.0627
F163H	0.0549	–	0.0538	–	0.0488	–	–	–	0.0816	–	0.0256	–	–	0.0552	–	–	–	–
V165N	0.0393	–	–	0.0566	–	0.0375	0.0374	–	–	–	0.0573	0.03	0.0493	–	0.0308	0.0459	–	–
H168S	0.0549	–	–	–	0.0643	–	0.0587	–	0.0677	0.0601	0.0496	0.0581	0.0574	–	0.0569	–	–	–
H168T	0.0566	0.073	0.0617	–	0.0349	0.0592	0.0621	0.0662	0.0525	0.0559	0.059	–	–	–	0.0615	–	–	–
N172C	0.061	–	–	0.066	–	0.0509	–	–	0.0593	0.0542	–	0.0627	0.0532	0.0666	0.0752	0.0675	–	–
T174Y	0.0306	–	0.0531	0.0901	0.0613	0.0604	0.0747	–	0.0695	–	–	0.0727	0.057	–	0.0766	–	–	–
T176G	0.0732	–	0.0627	–	–	0.0524	0.0589	0.0593	–	0.0499	0.0648	0.0641	0.0557	0.0525	0.0675	0.0574	0.0591	–
N177Y	0.0567	–	–	–	–	0.0622	0.064	–	0.064	–	0.0755	–	–	–	–	–	–	–
P184Q	0.0448	–	0.0558	–	–	0.0417	0.0665	0.0608	0.0769	0.062	0.0636	0.0596	0.0432	–	0.0663	0.0519	0.0495	0.0538
